Reference: ChEMBL document CHEMBL4888484, “Replenishing the malaria drug discovery pipeline: Screening and hit evaluation of the MMV Hit Generation Library 1 (HGL1) against asexual blood stage Plasmodium falciparum ,using a nano luciferase reporter read-out” (2022)
The whole screen tested about 4,800 compounds, of which about 410 (8.5%) showed an effect of 50% or more. The list shows a part of the results.

tested on: Plasmodium falciparum; assay: Confirmatory screen in NF54 pLDH assay, in single point, at 2uM, 72h; assay type: functional, Erythrocyte; conditions: timepoint 72 hour

Going from `Cc1ccccc1C(=O)Nc1nnc(Cc2nc3ccccc3s2)s1` to `C[C@@H](NC(=O)c1ccccc1F)c1ccccc1`, the “% Inhibition” value rises from -8% to 14%.

First: O=C1C2C3C=CC(C3=C3CCCCC3)C2C(=O)N1c1cccc(Cl)c1 (stereo unspecified)
Second: O=C(NCc1cccnc1)c1cnn2c3c(cnc12)CCCC3
The “% Inhibition” value of the first is higher: 15% for the first, -3% for the second.

First: NC(=O)[C@@H]1CN(C(=O)c2ccc(Br)cc2Oc2ccc(F)cc2)CCO1
Second: COc1ccc(N(Cc2ccc(F)cc2)S(=O)(=O)c2ccc3nncn3c2)cc1
The “% Inhibition” value of the first is higher: 1% for the first, -9% for the second.

First: CCCNC(=O)CS(=O)(=O)Cc1cccc(Br)c1C
Second: Cc1nc(CCNC(=O)Cc2nn(C)c3ccccc23)c(C)o1
The “% Inhibition” value of the first is lower: -14% for the first, 12% for the second.

First: CCc1nccn1CC(=O)Nc1cc(C)nn1C
Second: CCCCC(C(=O)Nc1cc(C)on1)N1CCN(C)CC1C (stereo unspecified)
The “% Inhibition” value of the first is lower: -14% for the first, -4% for the second.

First: Cc1cccc(N2C(=O)c3cc(Br)ccc3N[C@@H]2c2ccc(N(C)C)cc2)c1
Second: CCc1c2c(=O)n(-c3ccc(F)cc3)[nH]c2cc(=O)n1Cc1ccccc1
The “% Inhibition” value of the first is lower: -1% for the first, 8% for the second.

First: COc1ccc(CN2CCc3nn(CC4CC4)c(=O)n3CC2)cc1
Second: Cc1ccc(CN2CCN(CC(=O)NC3CCCCCCC3)C2=O)cc1
The “% Inhibition” value of the first is lower: -6% for the first, -5% for the second.

Compared with `CCN1c2cc(C)ccc2-n2cccc2C12CCNCC2`, `CCN1c2cc(C(=O)NCc3ccccc3C)ccc2C(=O)N2CCCC[C@H]21` is higher in “% Inhibition” value: -7% for the first, 1% for the second.

First: CCOc1ccc(NC(=O)c2cn3nc(-c4ccc(OCC)cc4)cc3nc2C2CCN(C(=O)OC(C)(C)C)CC2)cc1
Second: CCOc1ccc(NC(=O)N(Cc2cn(CC)c3ccccc23)[C@@H](C)CC)cc1
The “% Inhibition” value of the first is higher: 16% for the first, -14% for the second.

Going from `CC(C)[C@H](NC(=O)c1ccc(Cl)cc1Cl)C(=O)O` to `CN(C)CCNCc1ccc(Cl)c(Cl)c1`, the “% Inhibition” value falls from -5% to -14%.

First: CCC(=O)N1CCC[C@H](OCc2ccccc2Cl)C1
Second: CC(=O)N1CC[C@H](CC(=O)N(C)Cc2ccccc2)C1
The “% Inhibition” value of the first is lower: -3% for the first, 0% for the second.

First: CC(C)(C)CC(=O)Nc1ccc2c(c1)C(N1CCCCC1)=Nc1ccccc1O2
Second: Cc1noc(C)c1CNc1cc(S(=O)(=O)N2CCCCC2)ccc1Oc1ccccc1
The “% Inhibition” value of the first is lower: -4% for the first, 14% for the second.

Compared with `Cc1cc(CN2C(=O)NC3(CCCCC3)C2=O)no1`, `Cc1nn(C)c(C)c1S(=O)(=O)N1CC[C@]2(CCN(c3cccnc3)C2)C1` is higher in “% Inhibition” value: 3% for the first, 12% for the second.

First: CCOc1cc(CNc2cccc3ccccc23)cc(Br)c1OCC(=O)NC(C)(C)C
Second: COc1ccc(CCNC(=O)CCCC(=O)NCc2ccccc2)cc1OC
The “% Inhibition” value of the first is higher: 91% for the first, -14% for the second.

Going from `Cc1ccc(NC(=O)c2cn(CC3(O)CCN(Cc4ccccc4)CC3)nn2)c(C)c1` to `CCn1c(=O)c(N2CCC[C@H](C(=O)NCCc3c[nH]c4ccccc34)C2)nc2ccccc21`, the “% Inhibition” value falls from 12% to 9%.

First: CNC(=O)c1cnc(C=Cc2cnc(-c3cccnc3)s2)s1
Second: CCc1ccccc1Nc1nc(C)c(C(=O)NCc2cccnc2)s1
The “% Inhibition” value of the first is higher: 8% for the first, -22% for the second.

Compared with `c1ccc(-c2ccccc2NCn2nnc3ccccc32)cc1`, `Cc1cc(N)nc(Nc2ccc(Nc3ccccc3)cc2)n1` is higher in “% Inhibition” value: -9% for the first, 97% for the second.

First: NS(=O)(=O)Cc1ccc(CNc2ccc3ccc(F)cc3n2)cc1
Second: O=C(Cc1ccc(N(Cc2cccc(F)c2)C(=O)C2CCCC2)cc1)NCCN1CCCC1
The “% Inhibition” value of the first is lower: 6% for the first, 31% for the second.

First: CC(C)(C)OC(=O)N1CC(NC(=O)C2CC2c2ccccc2C(F)(F)F)C1 (stereo unspecified)
Second: COC(=O)N1CC[C@H](NC(=O)OC(C)(C)C)C1
The “% Inhibition” value of the first is lower: -16% for the first, 10% for the second.

First: CCOc1c(CNC(C)(C)CC(C)(C)C)cccc1OC
Second: CN(CC(C)(CO)CO)C(=O)c1coc2ccccc12
The “% Inhibition” value of the first is higher: 5% for the first, 4% for the second.

Going from `Fc1ccccc1N1CCN(C2CCN(Cc3c[nH]c4ccccc34)CC2)CC1` to `C[C@@H](C(=O)N1CCN(C/C=C/c2ccccc2)CC1)N1Cc2ccccc2C1=O`, the “% Inhibition” value falls from 33% to 0%.

First: O=C(NCC(F)(F)F)Nc1ccc(CO)cc1
Second: O=C1CCC[C@H](C(=O)Nc2cnn(CC(F)(F)F)c2)N1
The “% Inhibition” value of the first is lower: 3% for the first, 6% for the second.

First: CCC(=O)N1CCC(Nc2cccc(-c3nc(C4CC4)n[nH]3)c2)CC1
Second: CC(C)C(=O)NC1CCN(c2nc(Cc3ccc(F)cc3)no2)CC1
The “% Inhibition” value of the first is lower: -24% for the first, 16% for the second.

Compared with `Cc1cc(OCc2ccc(C(=O)Nc3ncn(Cc4c(F)cccc4Cl)n3)o2)ccc1Cl`, `Cc1cc2nc(C)c(=O)n(Cc3ccc(C(=O)NCCCN4CCCC[C@@H]4C)cc3)c2cc1C` is higher in “% Inhibition” value: 0% for the first, 14% for the second.

Going from `CN(C)C(=O)NCC1(NC(=O)N(C)C)CCC1` to `Cc1csc(C(C)(C)NC(=O)NCCC2=CCCC2)n1`, the “% Inhibition” value falls from 5% to -7%.

Compared with `O=C(NCc1ccco1)c1nc(-c2ccncc2)cs1`, `O=C(NCCCN1CCCC1=O)c1cn2ccnc(-c3ccccc3)c2n1` is lower in “% Inhibition” value: 10% for the first, 0% for the second.

Compared with `COc1ccc(C2=NN(C(C#N)c3cccc(OC)c3O)C(c3ccccc3)C2)cc1` (stereo unspecified), `Cc1c(CCO)c(=O)n(-c2ccccc2)n1S(=O)(=O)c1c(Cl)cc(Cl)cc1Cl` is higher in “% Inhibition” value: 3% for the first, 11% for the second.

Compared with `Cn1nccc1/C=C1\CC2C3CCc4cc(O)ccc4C3CCC2(C)C1O` (stereo unspecified), `Cc1cc(Cl)ccc1S(=O)(=O)N1CCc2nnc([C@H]3CCN(C(C)C)C3)n2CC1` is lower in “% Inhibition” value: 47% for the first, 10% for the second.

Going from `CC1CN(S(=O)(=O)CC2CCOC2)c2ccc(F)cc2O1` (stereo unspecified) to `O=C(Nc1ccccc1OC[C@H]1CCCCO1)N1CCOCC1`, the “% Inhibition” value rises from 3% to 9%.

First: CCOCCC1(CN=C(N)N2CCCCC2)CCCC1
Second: Cn1ncnc1CCNC(=O)NC(C1CCCC1)C1CCCC1
The “% Inhibition” value of the first is lower: 5% for the first, 11% for the second.

Going from `CCOC1CC(NC2CC(c3ccc(F)cc3)C2)C12CCC2` (stereo unspecified) to `O=c1ccn2c(n1)O[C@H]1[C@H](OC3CCCCO3)[C@@H](COC3CCCCO3)O[C@H]12` (stereo partly specified), the “% Inhibition” value falls from 45% to -17%.

First: Cc1cc(C(=O)N(CCN(C)C)c2ccccc2)c(C)s1
Second: O=C(Cn1cnc2cc3c(cc21)OCCCO3)N1CCc2ccccc21
The “% Inhibition” value of the first is lower: 6% for the first, 12% for the second.

Going from `Cc1nc(-c2ccc(C(F)(F)F)cc2)nc(N2CCN(C(=O)c3cc(C(F)(F)F)cc(C(F)(F)F)c3)CC2)c1C(C)C` to `c1ccc(CC2CCN(c3[nH]cnc4ncnc3-4)CC2)cc1`, the “% Inhibition” value rises from 7% to 11%.
